The values below come from the RNAGym collection of RNA variant scans (doi:10.1093/nar/gkz1192).

To fix the notation:
B1: CPEB3 Ribozyme (parent)
chain: UAACAGGGGGCCACAGCAGAAGCGUUCACGUCGCAGCCCCUGUCAGAUUCUGGUGAAUCUGCGAAUUCUGCUGUAUAUCUC

The source gives no read counts; variants with many changes may rest on few reads.

Variants of B1 are the subject of the data set. Nature of the data set: self-cleavage, relative activity (ratio to wild type); higher = more cleavage; in vitro, sequencing. A digest of the protocol:
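After error-prone PCR and barcoding, CPEB3 ribozyme mutant libraries were transcribed with T7 RNA polymerase at 37°C for 5 hours, then given 15 min with DNase I before an EDTA stop, and they cleaved during both steps. Reverse transcription with template switching preceded Illumina sequencing. Relative activity divides a variant's cleaved/total read fraction by the unmutated ribozyme's. At least 5 reads were required per variant, and three batches were averaged.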
In the case of U25C A28U U31A U69A C79A U80C, the self-cleavage is 0.21.

For U25C A45G U51C U54C U72A, the self-cleavage came out at 0.05.

As for U26A U43C A56G, the self-cleavage is 0.14.

For the variant U25C U26C U41C U49A U67C, the self-cleavage stood at 0.13.

Regarding U25C U31A U51C U60A U72A U78C, the self-cleavage worked out at 0.08.

Take U25C C40A U51C: the self-cleavage amounted to 0.15.

As for U26A U41C A47G U49C G63A, the self-cleavage amounted to 0.13.

With U25C A45U U69A, the self-cleavage was 0.26.

U25C U31A U41C U51A U60C: the self-cleavage worked out at 0.2.

U25C A56C U58G A65G U67A: the self-cleavage is 0.13.

Consider U25C U26C U41C U43A, for which the self-cleavage is 0.29.

On to U25G C34G U58A, for which the self-cleavage came to 0.22.

With U26A U43G A64U U72C, the self-cleavage turned out to be 0.15.

With U25C U48C U54C, the self-cleavage came to 0.1.

U25C U43C G53C A65G: the self-cleavage came out at 0.5.

As for U25C U48C A64G, the self-cleavage was 0.26.

Regarding U25C U41C A45U U51C U54C, the self-cleavage was 0.31.

For U25C U31A U43C A47G U54G, the self-cleavage turned out to be 0.07.

Turning to U25C C27A U49C, the self-cleavage is 0.14.

With U26A A47G U60A, the self-cleavage was 0.19.

Regarding U25C A57G A65U U76C, the self-cleavage was determined as 0.08.

Take U25C A35G G46A A64G: the self-cleavage is 0.18.

With U25C A57G A75G, the self-cleavage came to 0.05.

With U25C A35G U41C U69G, the self-cleavage came out at 0.25.

Consider U25C U48C U80G, for which the self-cleavage came to 0.27.

As to U25C C34U U51C, the self-cleavage turned out to be 0.11.

For the variant U26A A35U U41C U76C, the self-cleavage came out at 0.18.

In the case of U26A U51A U74C, the self-cleavage is 1.09.

On to U25C U31A A64U U78C, for which the self-cleavage turned out to be 0.15.

With U25C A65G U76A A77U, the self-cleavage stood at 0.04.

Regarding U25C A64G U69A U74C, the self-cleavage was found to be 0.06.

For the variant U25C U31C A35U U48C U49A A57G U78A, the self-cleavage is 0.08.

Take U25C U48C G70A: the self-cleavage stood at 0.37.

Consider U25C C29G U31C U41A A45U A57G U74A, for which the self-cleavage amounted to 0.03.

In the case of U25C U26C A45G, the self-cleavage is 0.19.

With U25C U26G U69A U72A, the self-cleavage amounted to 0.14.

Turning to U25C U26C A45G A57C G73C, the self-cleavage is 0.12.

In the case of U25C A47U A64U A65G, the self-cleavage is 0.12.

Consider U25C C32U C40G G53A U78A U80A, for which the self-cleavage was found to be 0.06.

U25C U31C G33A U49C: the self-cleavage amounted to 0.06.

For the variant U25C A35G U41A, the self-cleavage is 0.31.

Regarding U26A U31C C34U U41A U54A, the self-cleavage worked out at 0.15.

Consider U25C U26A A77U, for which the self-cleavage is 0.22.

On to U26A U41C U48C U69A G73A, for which the self-cleavage stood at 0.18.

Turning to U25C A57U U78C, the self-cleavage was 0.28.

For the variant U25C U41C U58C, the self-cleavage was 0.06.

With U25C A65C U80C, the self-cleavage is 0.14.

For U25C A45G U49C, the self-cleavage worked out at 0.17.

As to U25C U26A U43C U60C U67A, the self-cleavage turned out to be 0.07.

As to U25C U26A U41A C44U U72A, the self-cleavage is 0.1.

Turning to U25C A35G U41C A45G, the self-cleavage came out at 0.33.

As for U26A U41A U48C G52A A56U, the self-cleavage came to 0.09.

Turning to U25C A57G A64U, the self-cleavage was 0.24.

Consider U25C U49C A75G, for which the self-cleavage worked out at 0.15.

For the variant U25C A28G U51C A57G U69A, the self-cleavage amounted to 0.21.

As to U25C A45G U49C A75G, the self-cleavage was determined as 0.17.

For the variant U25C C32A U51C U74A, the self-cleavage is 0.31.

U25C C38G U60C U69C: the self-cleavage came out at 0.03.

As for U25G G42A U48C, the self-cleavage amounted to 0.17.

In the case of U26A C32U A47G C68A, the self-cleavage turned out to be 0.1.

Consider U25C U41C U60A U66C, for which the self-cleavage amounted to 0.12.

As for U25C U26C U31C A35G, the self-cleavage worked out at 0.11.

U26A A45U A57G C71U: the self-cleavage was 0.07.

On to U25C U26C C40U U72A, for which the self-cleavage is 0.21.

Turning to U26A G36U A57G U60A A65U, the self-cleavage stood at 0.09.

On to U26A A28G A45G U66C U80A, for which the self-cleavage was found to be 0.09.

For the variant U26A G46U U60C U66A, the self-cleavage was determined as 0.23.

For the variant U25C A35G U43C U48C U78C, the self-cleavage worked out at 0.15.

In the case of U25C U69C C71U, the self-cleavage turned out to be 0.11.

U25C A35G U48C U51C: the self-cleavage is 0.29.

U25C C29U U31A U67C: the self-cleavage turned out to be 0.1.

As to U25C A35G A45C U48C U78C, the self-cleavage worked out at 0.03.

As for U25A U48A G52U C81G, the self-cleavage turned out to be 0.07.

As for U25C U43C A56U U78G, the self-cleavage was 0.27.

Consider U26A U43C A47G U60G A77G, for which the self-cleavage came out at 0.13.

On to U25C G36C U51C U54A, for which the self-cleavage is 0.14.

Take U25C A47G U58A: the self-cleavage is 0.06.

In the case of U25C U31A A57G A65G, the self-cleavage turned out to be 0.14.

U25C U41C U58C A64G U69A: the self-cleavage came out at 0.03.

In the case of U26A C38U U51A A56U U60C U80A, the self-cleavage came to 0.12.

In the case of U26A U49C U54A, the self-cleavage stood at 0.23.

In the case of U26A G30U U49C U54C U58C, the self-cleavage is 0.08.

As to U25C U41C U51A G63A U74C, the self-cleavage amounted to 0.2.
